Here are results for 3 compounds from the supplement of paper PMC4604168 (melanoma cell lines).

Common to all, as to test: cell count relative to DMSO control; melanoma cells; higher = more viable cells
What all share (settings): library dose: low library concentration; 72 h

The test system of experiment [1] is MZ2-MEL.
Experiment [2] deals with MeWo.
Experiment [3] relates to RPMI7951.
The subject of experiment [4] is RVH-421.
In experiment [5] the test system is SkMel28.
The subject of experiment [6] is SkMel30.
Experiment [7] concerns SkMel5.
Experiment [8] has as its system UACC257.
Experiment [9] concerns UACC62.
For experiment [10], the system named is WM115.
Experiment [11] relates to WM1716.
Experiment [12] deals with WM1745.
In experiment [13] the test system is WM3526.
The test system of experiment [14] is WM3619.
Experiment [15] has as its system WM451Lu.

This is one part of the list. Single values are uncertain, as repeats are few or missing.
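Also: cell number obtained by counting DAPI-stained nuclei in high-throughput microscope images with image analysis software, screen run in 1,536-well plates.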

As to `Cn1cncc1[C@@](N)(c1ccc(Cl)cc1)c1ccc2c(c1)c(-c1cccc(Cl)c1)cc(=O)n2C` [tipifarnib] + COc1ccc(-c2ccc3c(N4CCOCC4)nc(N4C[C@@H](C)O[C@@H](C)C4)nc3n2)cc1CO [KU0063794] (first compound 0.01 µM, partner dose 0.02 µM), the cell count is 95.8% in experiment [1]; 88.6% in experiment [2]; 90% in experiment [3]; 84.2% in [4]; 89.8% in [5]; 97.9% in experiment [6]. The cell count in [7] was determined as 123%; in [8], 53.8%; in experiment [9] it was 66.3%; in [10], 83.3%; in experiment [11], 71.8%; in [12], 90.5%. Moreover, the cell count was found to be 89.8% in experiment [13], 81% in [14] and 88.8% in experiment [15].
As for `COc1cc(Nc2ncc(F)c(Nc3ccc4c(n3)NC(=O)C(C)(C)O4)n2)cc(OC)c1OC` [Tamatinib] + Cn1cc(/C=C2\C(=O)Nc3cccnc32)c2ccccc21 [GW441756] (first compound 0.4 µM, partner dose 0.4 µM), the cell count in experiment [1] was determined as 89.3%; in experiment [2] it was 89%; in experiment [3] it was 78.1%; in experiment [4] it was 108%; in [5] it was 74.6%; in experiment [6] it was 83.9%. For the same compound, the cell count is 83.6% in [7]; 77.9% in experiment [8]; 77.7% in [9]; 89.8% in experiment [10]; 99% in experiment [11]; 65.7% in experiment [12]. Further, the cell count is 67.5% in experiment [13], 92.9% in [14] and 92.9% in experiment [15].
Take `Cn1cncc1[C@@](N)(c1ccc(Cl)cc1)c1ccc2c(c1)c(-c1cccc(Cl)c1)cc(=O)n2C` [tipifarnib] + COC(=O)c1sccc1S(=O)(=O)Nc1ccc(Nc2ccccc2)cc1OC [GSK0660] (first compound 0.01 µM, partner dose 1 µM): the cell count in experiment [1] was found to be 98%; in experiment [2], 95.2%; in experiment [3], 74.5%; in [4] it was 85%; in experiment [5], 84.9%; in experiment [6] it was 104%. Moreover, the cell count in [7] is 88.8%; in experiment [8], 69.5%; in experiment [9], 69.2%; in experiment [10], 88%; in experiment [11], 68.6%; in [12] it was 109%. Also, the cell count is 86.4% in experiment [13], 102% in [14] and 87.1% in [15].
